{
  "source": "ChEMBL document CHEMBL3112442",
  "about": "“Anilino-monoindolylmaleimides as potent and selective JAK3 inhibitors” (Bioorg Med Chem Lett, 2014)",
  "data": [
    {"biological_target": "Non-receptor tyrosine-protein kinase TYK2 (Homo sapiens, UniProt P29597)", "sequence (P29597 whole entry)": "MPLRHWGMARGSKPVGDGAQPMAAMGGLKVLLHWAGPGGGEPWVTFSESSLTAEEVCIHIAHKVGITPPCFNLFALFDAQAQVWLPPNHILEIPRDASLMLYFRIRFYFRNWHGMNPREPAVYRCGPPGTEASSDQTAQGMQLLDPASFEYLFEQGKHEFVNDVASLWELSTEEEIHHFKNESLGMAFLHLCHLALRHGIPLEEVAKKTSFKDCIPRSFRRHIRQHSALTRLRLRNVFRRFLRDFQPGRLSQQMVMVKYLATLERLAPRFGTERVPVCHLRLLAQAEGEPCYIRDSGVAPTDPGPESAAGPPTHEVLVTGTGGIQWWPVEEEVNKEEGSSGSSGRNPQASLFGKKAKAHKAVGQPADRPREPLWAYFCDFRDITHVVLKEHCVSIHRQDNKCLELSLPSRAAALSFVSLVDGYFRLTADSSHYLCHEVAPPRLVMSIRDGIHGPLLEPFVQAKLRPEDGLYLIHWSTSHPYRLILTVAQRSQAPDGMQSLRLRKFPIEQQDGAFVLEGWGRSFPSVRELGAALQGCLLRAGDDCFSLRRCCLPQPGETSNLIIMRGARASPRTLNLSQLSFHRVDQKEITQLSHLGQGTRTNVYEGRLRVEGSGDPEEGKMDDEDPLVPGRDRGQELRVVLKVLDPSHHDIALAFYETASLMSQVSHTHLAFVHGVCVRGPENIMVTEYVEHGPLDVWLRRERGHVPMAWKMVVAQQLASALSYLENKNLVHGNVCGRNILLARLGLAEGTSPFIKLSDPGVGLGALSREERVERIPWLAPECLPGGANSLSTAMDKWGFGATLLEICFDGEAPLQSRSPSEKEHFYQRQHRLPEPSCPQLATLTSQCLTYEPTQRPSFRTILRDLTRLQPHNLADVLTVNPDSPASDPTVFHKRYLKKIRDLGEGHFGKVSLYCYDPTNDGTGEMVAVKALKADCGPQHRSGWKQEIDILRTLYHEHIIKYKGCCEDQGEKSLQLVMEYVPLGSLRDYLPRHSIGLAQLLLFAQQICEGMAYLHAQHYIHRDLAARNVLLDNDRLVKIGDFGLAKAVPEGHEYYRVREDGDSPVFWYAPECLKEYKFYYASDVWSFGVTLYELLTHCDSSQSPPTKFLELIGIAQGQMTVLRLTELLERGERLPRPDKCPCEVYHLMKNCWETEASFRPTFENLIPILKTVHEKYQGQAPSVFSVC", "units": {"IC50": "µM"}, "values": [
      {"smiles": "O=C1NC(=O)C(c2c[nH]c3ccccc23)=C1Nc1cccc(O[C@H]2CCN(c3ccnc(F)c3)C2)c1", "IC50": 5.83}
    ]},
    {"biological_target": "Tyrosine-protein kinase JAK2 (Homo sapiens, UniProt O60674)", "sequence (O60674 whole entry)": "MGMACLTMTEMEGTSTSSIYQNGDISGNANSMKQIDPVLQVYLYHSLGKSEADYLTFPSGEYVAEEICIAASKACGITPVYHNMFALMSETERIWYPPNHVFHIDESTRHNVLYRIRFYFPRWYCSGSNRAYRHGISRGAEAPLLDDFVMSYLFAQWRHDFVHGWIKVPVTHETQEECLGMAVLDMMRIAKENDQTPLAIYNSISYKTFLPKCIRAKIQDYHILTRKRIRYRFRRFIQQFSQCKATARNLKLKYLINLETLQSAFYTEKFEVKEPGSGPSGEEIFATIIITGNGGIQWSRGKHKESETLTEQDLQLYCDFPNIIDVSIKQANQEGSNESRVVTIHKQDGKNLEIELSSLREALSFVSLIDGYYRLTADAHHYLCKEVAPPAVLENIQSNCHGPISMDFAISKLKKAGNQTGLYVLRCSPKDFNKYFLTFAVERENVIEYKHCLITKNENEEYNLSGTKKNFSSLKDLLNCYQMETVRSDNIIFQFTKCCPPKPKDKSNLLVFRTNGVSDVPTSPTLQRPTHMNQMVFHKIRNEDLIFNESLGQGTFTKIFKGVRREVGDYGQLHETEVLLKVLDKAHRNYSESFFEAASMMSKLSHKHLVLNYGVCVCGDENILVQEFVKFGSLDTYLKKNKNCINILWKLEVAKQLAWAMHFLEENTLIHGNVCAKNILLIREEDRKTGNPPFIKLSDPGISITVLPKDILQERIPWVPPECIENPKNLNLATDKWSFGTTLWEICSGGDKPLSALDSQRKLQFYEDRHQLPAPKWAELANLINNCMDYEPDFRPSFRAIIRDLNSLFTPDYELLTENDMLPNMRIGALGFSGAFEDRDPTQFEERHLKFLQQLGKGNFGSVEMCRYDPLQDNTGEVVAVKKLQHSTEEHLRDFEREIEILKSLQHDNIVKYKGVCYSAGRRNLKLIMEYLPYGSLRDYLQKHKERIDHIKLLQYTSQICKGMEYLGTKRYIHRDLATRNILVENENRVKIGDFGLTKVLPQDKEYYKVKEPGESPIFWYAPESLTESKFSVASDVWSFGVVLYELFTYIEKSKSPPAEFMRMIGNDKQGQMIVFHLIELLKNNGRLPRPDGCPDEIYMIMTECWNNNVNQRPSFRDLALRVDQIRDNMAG", "units": {"IC50": "µM"}, "values": [
      {"smiles": "O=C1NC(=O)C(c2c[nH]c3ccccc23)=C1Nc1cccc(O[C@@H]2CCN(c3ccnc(F)c3)C2)c1", "IC50": "> 10"},
      {"smiles": "O=C1NC(=O)C(c2c[nH]c3ccccc23)=C1Nc1ccccc1OCCNc1ccnc(F)c1", "IC50": "> 10"},
      {"smiles": "O=C1NC(=O)C(c2c[nH]c3ccccc23)=C1Nc1cccc(C2CCN(c3ccnc(F)c3)C2)c1", "note": "(racemic)", "IC50": "> 10"},
      {"smiles": "CC(C)(O)C(=O)N1CCN(c2ccc(C(F)(F)F)c(C3=C(c4c[nH]c5ccccc45)C(=O)NC3=O)c2)CC1", "IC50": "> 10"},
      {"smiles": "O=C1NC(=O)C(c2c[nH]c3ccccc23)=C1Nc1cccc(C2CN(c3ccnc(F)c3)C2)c1", "IC50": "> 10"},
      {"smiles": "O=C1NC(=O)C(c2c[nH]c3ccccc23)=C1Nc1ccc(OCCn2ccnc2)cc1", "IC50": "> 10"},
      {"smiles": "O=C1NC(=O)C(c2ccccc2)=C1Nc1cccc(OCCNc2ccnc(F)c2)c1", "IC50": 11.1},
      {"smiles": "O=C1C=C(Nc2cccc(OCCNc3ccnc(F)c3)c2)C(=O)N1", "IC50": "> 10"},
      {"smiles": "O=C1NC(=O)C(c2c[nH]c3ccccc23)=C1Nc1cccc(OC2CCN(c3ccnc(F)c3)C2)c1", "note": "(racemic)", "IC50": 1.24},
      {"smiles": "CN(CCOc1cccc(NC2=C(c3c[nH]c4ccccc34)C(=O)NC2=O)c1)c1ccnc(F)c1", "IC50": 0.49},
      {"smiles": "O=C1NC(=O)C(c2c[nH]c3ccccc23)=C1Nc1ccccc1OCCn1ccnc1", "IC50": "> 10"},
      {"smiles": "Cn1cc(C2=C(Nc3cccc(OCCNc4ccnc(F)c4)c3)C(=O)NC2=O)c2ccccc21", "IC50": 1.64},
      {"smiles": "O=C1NC(=O)C(c2c[nH]c3ccccc23)=C1Nc1ccc(OCCNc2ccnc(F)c2)cc1", "IC50": 9.69},
      {"smiles": "O=C1NC(=O)C(c2c[nH]c3ccccc23)=C1Nc1cccc(C2CCN(c3ccnc(F)c3)CC2)c1", "IC50": "> 10"},
      {"smiles": "O=C1NC(=O)C(c2c[nH]c3ccccc23)=C1Nc1cccc(OCCCn2ccnc2)c1", "IC50": "> 10"},
      {"smiles": "O=C1NC(=O)C(c2c[nH]c3ccccc23)=C1Nc1cccc(OCCNc2ccnc(F)c2)c1", "IC50": 2.13},
      {"smiles": "O=C1NC(=O)C(c2c[nH]c3ccccc23)=C1Nc1cccc(O[C@H]2CCN(c3ccnc(F)c3)C2)c1", "IC50": 1.48},
      {"smiles": "O=C1NC(=O)C(c2c[nH]c3ccccc23)=C1Nc1cccc(OC2CCN(c3ccnc(F)c3)CC2)c1", "IC50": 1.27},
      {"smiles": "O=C1NC(=O)C(c2c[nH]c3ccccc23)=C1Nc1ccc(OCCCNc2ccnc(F)c2)cc1", "IC50": 1.27},
      {"smiles": "O=C1NC(=O)C(c2c[nH]c3ccccc23)=C1Nc1cccc(OC2CCCN(c3ccnc(F)c3)C2)c1", "note": "(racemic)", "IC50": "> 10"},
      {"smiles": "O=C1NC(=O)C(c2c[nH]c3ccccc23)=C1Nc1cccc(OCCn2ccnc2)c1", "IC50": "> 10"},
      {"smiles": "O=C1NC(=O)C(c2cn(CCCn3ccnc3)c3ccccc23)=C1Nc1ccccc1", "IC50": 3.85},
      {"smiles": "O=C1NC(=O)C(c2c[nH]c3ccccc23)=C1Nc1ccc(OCCCn2ccnc2)cc1", "IC50": "> 10"}
    ]}
  ]
}
